# Experimental data as given in the supplement of paper PMC8728848.
# Some of the results follow.
# Columns and labels:
# Assay in all cases: glycan array binding signal (z-score within array); higher = stronger binding
# Details in all cases: glycan notation: IUPAC condensed, linker removed
# [1] = biological target: Neu5Ac(a2-3)Gal(b1-3)GlcNAc
# Summary of the method: (§1)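 Glycan array data were curated from 3228 arrays in the Consortium for Functional Glycomics database and kept only where the protein sequence was available. Glycan names were converted to IUPAC-condensed notation, and columns mapping to the same glycan were averaged. The binding signal is a within-array Z-score, averaged across arrays of the same protein sequence at different concentrations or buffers and across linkers. Negative Z-scores can be read as non-binding.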
# [2] = biological target: Neu5Ac(a2-3)Gal(b1-3)GlcNAc(b1-2)Man
# Summary of the method: as §1
# [3] = biological target: Neu5Ac(a2-3)Gal(b1-3)GlcNAc(b1-2)Man(a1-3)[GlcNAc(b1-4)][Neu5Ac(a2-3)Gal(b1-3)GlcNAc(b1-2)Man(a1-6)]Man(b1-4)GlcNAc(b1-4)GlcNAc
# Summary of the method: as §1
# [4] = biological target: Neu5Ac(a2-3)Gal(b1-3)GlcNAc(b1-2)Man(a1-3)[Neu5Ac(a2-3)Gal(b1-3)GlcNAc(b1-2)Man(a1-6)]Man(b1-4)GlcNAc(b1-4)GlcNAc
# Summary of the method: as §1
# [5] = biological target: Neu5Ac(a2-3)Gal(b1-3)GlcNAc(b1-2)[Neu5Ac(a2-3)Gal(b1-3)GlcNAc(b1-4)]Man(a1-6)[Neu5Ac(a2-3)Gal(b1-3)GlcNAc(b1-2)Man(a1-3)]Man(b1-4)GlcNAc(b1-4)GlcNAc
# Summary of the method: as §1
# [6] = biological target: Neu5Ac(a2-3)Gal(b1-3)GlcNAc(b1-3)Gal(b1-3)GlcNAc
# Summary of the method: as §1
# [7] = biological target: Neu5Ac(a2-3)Gal(b1-3)GlcNAc(b1-3)Gal(b1-4)GlcNAc
# Summary of the method: as §1
# [8] = biological target: Neu5Ac(a2-3)Gal(b1-3)GlcNAc(b1-3)GalNAc
# Summary of the method: as §1
# [9] = biological target: Neu5Ac(a2-3)Gal(b1-3)GlcNAc(b1-6)GalNAc
# Summary of the method: as §1
# [10] = biological target: Neu5Ac(a2-3)Gal(b1-3)GlcNAc6S
# Summary of the method: as §1
# [11] = biological target: Neu5Ac(a2-3)Gal(b1-3)[Fuc(a1-4)]GlcNAc
# Summary of the method: as §1
# [12] = biological target: Neu5Ac(a2-3)Gal(b1-3)[Fuc(a1-4)]GlcNAc(b1-3)Gal(b1-3)[Fuc(a1-4)]GlcNAc
# Summary of the method: as §1
# [13] = biological target: Neu5Ac(a2-3)Gal(b1-3)[Fuc(a1-4)]GlcNAc(b1-3)Gal(b1-4)[Fuc(a1-3)]GlcNAc
# Summary of the method: as §1
# [14] = biological target: Neu5Ac(a2-3)Gal(b1-3)[GlcNAc(b1-6)]GalNAc
# Summary of the method: as §1
# [15] = biological target: Neu5Ac(a2-3)Gal(b1-3)[Neu5Ac(a2-6)]GalNAc
# Summary of the method: as §1
# [16] = biological target: Neu5Ac(a2-3)Gal(b1-3)[Neu5Ac(a2-6)]GlcNAc(b1-3)[Fuc(a1-3)[Gal(b1-4)]GlcNAc(b1-6)]Gal(b1-4)Glc
# Summary of the method: as §1
# [17] = biological target: Neu5Ac(a2-3)Gal(b1-3)]Neu5Ac(a2-3)Gal(b1-4)]GlcNAc
# Summary of the method: as §1
# Neu5Ac(a2-3)Gal(b1-4)Glc = biological target: Neu5Ac(a2-3)Gal(b1-4)Glc
# Summary of the method: as §1
# [18] = biological target: Neu5Ac(a2-3)Gal(b1-4)GlcNAc
# Summary of the method: as §1
# [19] = biological target: Neu5Ac(a2-3)Gal(b1-4)GlcNAc(b1-2)Man
# Summary of the method: as §1
# [20] = biological target: Neu5Ac(a2-3)Gal(b1-4)GlcNAc(b1-2)Man(a1-3)[GlcNAc(b1-4)][Neu5Ac(a2-3)Gal(b1-4)GlcNAc(b1-2)Man(a1-6)]Man(b1-4)GlcNAc(b1-4)GlcNAc
# Summary of the method: as §1
# [21] = biological target: Neu5Ac(a2-3)Gal(b1-4)GlcNAc(b1-2)Man(a1-3)[Neu5Ac(a2-3)Gal(b1-4)GlcNAc(b1-2)Man(a1-6)]Man(b1-4)GlcNAc(b1-4)GlcNAc
# Summary of the method: as §1
# [22] = biological target: Neu5Ac(a2-3)Gal(b1-4)GlcNAc(b1-2)Man(a1-3)[Neu5Ac(a2-3)Gal(b1-4)GlcNAc(b1-2)Man(a1-6)]Man(b1-4)GlcNAc(b1-4)[Fuc(a1-6)]GlcNAc
# Summary of the method: as §1
# [23] = biological target: Neu5Ac(a2-3)Gal(b1-4)GlcNAc(b1-2)Man(a1-3)[Neu5Ac(a2-6)Gal(b1-4)GlcNAc(b1-2)Man(a1-6)]Man(b1-4)GlcNAc(b1-4)GlcNAc
# Summary of the method: as §1
# [24] = biological target: Neu5Ac(a2-3)Gal(b1-4)GlcNAc(b1-2)[Neu5Ac(a2-3)Gal(b1-4)GlcNAc(b1-4)]Man(a1-3)[GlcNAc(b1-4)][Neu5Ac(a2-3)Gal(b1-4)GlcNAc(b1-2)[Neu5Ac(a2-3)Gal(b1-4)GlcNAc(b1-6)]Man(a1-6)]Man(b1-4)GlcNAc(b1-4)GlcNAc
# Summary of the method: as §1
# [25] = biological target: Neu5Ac(a2-3)Gal(b1-4)GlcNAc(b1-2)[Neu5Ac(a2-3)Gal(b1-4)GlcNAc(b1-4)]Man(a1-3)[GlcNAc(b1-4)][Neu5Ac(a2-3)Gal(b1-4)GlcNAc(b1-4)Man(a1-6)]Man(b1-4)GlcNAc(b1-4)GlcNAc
# Summary of the method: as §1
# [26] = biological target: Neu5Ac(a2-3)Gal(b1-4)GlcNAc(b1-2)[Neu5Ac(a2-3)Gal(b1-4)GlcNAc(b1-6)]Man(a1-6)[Neu5Ac(a2-3)Gal(b1-4)GlcNAc(b1-2)Man(a1-3)][GlcNAc(b1-4)]Man(b1-4)GlcNAc(b1-4)GlcNAc
# Summary of the method: as §1
# [27] = biological target: Neu5Ac(a2-3)Gal(b1-4)GlcNAc(b1-3)Gal
# Summary of the method: as §1
# [28] = biological target: Neu5Ac(a2-3)Gal(b1-4)GlcNAc(b1-3)Gal(b1-3)GlcNAc
# Summary of the method: as §1
# [29] = biological target: Neu5Ac(a2-3)Gal(b1-4)GlcNAc(b1-3)Gal(b1-4)GlcNAc
# Summary of the method: as §1
# [30] = biological target: Neu5Ac(a2-3)Gal(b1-4)GlcNAc(b1-3)Gal(b1-4)GlcNAc(b1-2)Man(a1-3)[Neu5Ac(a2-3)Gal(b1-4)GlcNAc(b1-3)Gal(b1-4)GlcNAc(b1-2)Man(a1-6)]Man(b1-4)GlcNAc(b1-4)GlcNAc
# Summary of the method: as §1
# [31] = biological target: Neu5Ac(a2-3)Gal(b1-4)GlcNAc(b1-3)Gal(b1-4)GlcNAc(b1-3)Gal(b1-4)GlcNAc
# Summary of the method: as §1
# [32] = biological target: Neu5Ac(a2-3)Gal(b1-4)GlcNAc(b1-3)Gal(b1-4)GlcNAc(b1-3)Gal(b1-4)GlcNAc(b1-2)Man(a1-3)[Neu5Ac(a2-3)Gal(b1-4)GlcNAc(b1-3)Gal(b1-4)GlcNAc(b1-3)Gal(b1-4)GlcNAc(b1-2)Man(a1-6)]GalNAc
# Summary of the method: as §1
# [33] = biological target: Neu5Ac(a2-3)Gal(b1-4)GlcNAc(b1-3)Gal(b1-4)GlcNAc(b1-3)GalNAc
# Summary of the method: as §1
# [34] = biological target: Neu5Ac(a2-3)Gal(b1-4)GlcNAc(b1-3)Gal(b1-4)GlcNAc(b1-3)[Neu5Ac(a2-3)Gal(b1-4)GlcNAc(b1-3)Gal(b1-4)GlcNAc(b1-6)]GalNAc
# Summary of the method: as §1
# [35] = biological target: Neu5Ac(a2-3)Gal(b1-4)GlcNAc(b1-3)Gal(b1-4)GlcNAc(b1-6)[Gal(b1-3)]GalNAc
# Summary of the method: as §1
# [36] = biological target: Neu5Ac(a2-3)Gal(b1-4)GlcNAc(b1-3)Gal(b1-4)[Fuc(a1-3)]GlcNAc
# Summary of the method: as §1
# [37] = biological target: Neu5Ac(a2-3)Gal(b1-4)GlcNAc(b1-3)GalNAc
# Summary of the method: as §1
binder,measurement,setting,value
"Siglec-E (Mus musculus), Q91Y57 (protein) MLLLLLLLLLWGIKGVEGQNPQEVFTLNVERKVVVQEGLCVLVPCNFSYLKKRLTDWTDSDPVHGFWYREGTDRRKDSIVATNNPIRKAVKETRNRFFLLGDPWRNDCSLNIREIRKKDAGLYFFRLERGKTKYNYMWDKMTLVVTALTNTPQILLPETLEAGHPSNLTCSVPWDCGWTAPPIFSWTGTSVSFLSTNTTGSSVLTITPQPQDHGTNLTCQVTLPGTNVSTRMTTRLNVSYAPKNLTVTIYQGADSVSTILKNGSSLPISEGQSLRLICSTDSYPPANLSWSWDNLTLCPSKLSKPGLLELFPVHLKHGGVYTCQAQHALGSQHISLSLSPQSSATLSEMMMGTFVGSGVTALLFLSVCILLLAVRSYRRKPARPAVVAPHPDALKVSVSQNPLVESQADDSSEPLPSILEAAPSSTEEEIHYATLSFHEMKPMNLWGQQDTTTEYSEIKFPQRTAWP",glycan array binding signal (z-score),[1],-0.503
same,glycan array binding signal (z-score),[2],0.009
same,glycan array binding signal (z-score),[3],-0.264
same,glycan array binding signal (z-score),[4],6.41
same,glycan array binding signal (z-score),[5],0.43
same,glycan array binding signal (z-score),[6],-0.603
same,glycan array binding signal (z-score),[7],-0.457
same,glycan array binding signal (z-score),[8],-0.226
same,glycan array binding signal (z-score),[9],-0.343
same,glycan array binding signal (z-score),[10],0.3
same,glycan array binding signal (z-score),[11],-0.348
same,glycan array binding signal (z-score),[12],-0.297
same,glycan array binding signal (z-score),[13],-0.475
same,glycan array binding signal (z-score),[14],-0.28
same,glycan array binding signal (z-score),[15],0.525
same,glycan array binding signal (z-score),[16],-0.564
same,glycan array binding signal (z-score),[17],-0.186
same,glycan array binding signal (z-score),Neu5Ac(a2-3)Gal(b1-4)Glc,3.95
same,glycan array binding signal (z-score),[18],-0.415
same,glycan array binding signal (z-score),[19],2.6
same,glycan array binding signal (z-score),[20],-0.302
same,glycan array binding signal (z-score),[21],-0.499
same,glycan array binding signal (z-score),[22],-0.371
same,glycan array binding signal (z-score),[23],-0.554
same,glycan array binding signal (z-score),[24],-0.131
same,glycan array binding signal (z-score),[25],-0.086
same,glycan array binding signal (z-score),[26],-0.562
same,glycan array binding signal (z-score),[27],-0.071
same,glycan array binding signal (z-score),[28],-0.64
same,glycan array binding signal (z-score),[29],-0.459
same,glycan array binding signal (z-score),[30],-0.264
same,glycan array binding signal (z-score),[31],-0.343
same,glycan array binding signal (z-score),[32],-0.242
same,glycan array binding signal (z-score),[33],-0.308
same,glycan array binding signal (z-score),[34],-0.335
same,glycan array binding signal (z-score),[35],-0.388
same,glycan array binding signal (z-score),[36],-0.489
same,glycan array binding signal (z-score),[37],0.58
